Results as given in the RNAGym collection of RNA variant scans (doi:10.1101/gad.245936.114).
This sample is rich in variants without activity.

B1: tRNA (parent)
chain: CUCUCGGUAGCCAAGUUGGUUUAAGGCGCAAGACUUUAAUUUAUCACUACGAAAUCUUGAGAUCGGGCGUUCGACUCGCCCCCGGGAGAUUUUUUCCUCGAGCAA

Variants of: B1
Test: nonsense suppression (GFP-seq) (ratio to wild type); higher = more function; SUP4oc tRNA, yeast GFP reporter sort-seq
In short: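 Raffinose/galactose medium with 80 mg/L adenine was used to grow yeast carrying genome-integrated tRNA variants (~3% random-mutation library), RFP, and a galactose-driven GFP ochre reporter. Cells went into GFP/RFP bins, which were Illumina-sequenced, and variants with ≥100 reads and ≥30 cells were scored. Nonsense suppression (GFPSEQ) is the per-bin median GFP/RFP weighted by estimated cell share and expressed relative to the unmutated parent tRNA.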

Nonsense suppression, ≤ 0.026:
CUCUGGGUAGCCAGGUUGGUUUAAGGCGCAAGACUUUAAUUUAUCACUACGAAAUCUUGAGAUCGGGCGUUCGACUCGCCCCCGGGAGAUUUUUUCCUCGAGCAA [C5G A14G]
CUCUGGGUAGCCAGAUUGGUUUAAGGCGCAAGACUUUAAUUUAUCACUACGAAAUCUUGAGAUCGGGCGUUCGACUCGCCCCCGGGAGAUUUUUUCCUCGAGCAA [C5G A14G G15A]
CUCUGGGUAGCCAGGUUGGUUUAAGGCGCAAGACUUUAAUUUAUCACUACGAAAUCGUGAGAUGGGGCGUUCGACUCGCCCCCGGGAGAUUUUUUCCUCGAGCAA [C5G A14G U57G C64G]
CUCUGGGUAGCCAUGUUGGCUUAAGGGGCAAGACUUUAAUUUAUCACUACGAAAUCUUGAGAUCGGGCGUUCGACUCGCCCCCGGGAGAUUUUUUCCUCGAGCAA [C5G A14U U20C C27G]
CUCUGGGUAGCCAAGUUGGUUUCAGGCGCAAGACUUUAAUUUAUCACUACGAAAUCUUGAGAUCGGGCGUUCGACUCGCCCCCGGGAGAUUUUUUCCUCGAGCAA [C5G A23C]
CUCUGGGUAGCCAAGUUGGUUUCAGGCGCAAGACUUUAAUUUAUCACUACGAAAUCUUGAGAUCGGUCGUUCGACUCGCCCCCGGGAGGUUUUUUCCUCGAGCAA [C5G A23C G67U A89G]
CUCUGGGUAGCCAAGUUGGUUUUAGGCGCUAUACUUUAAUUUAUCACUACGAAAUCUUGAGAUCGGGCGUUCGACUCGCCCCCGGGAGAUUUUUUCCUCGAGCAA [C5G A23U A30U G32U]
CUCUGGGUAGCCAAGUUGGUUUUAGUCGCAAGACGUUAAUUUAUCACUACGAAAUCUUGAGAUCGGGCGUUCGACUCGCCCCCGGGAGAUUUUUUCCUCGAGCAA [C5G A23U G26U U35G]
CUCUGGGUAGCCAAGUUGGUUUUAGGCGCAAGACUUUAAUUUAUCACUACGAAAUCUUGAGAUCGGGCGUUCGACUCUCCCCCGGGAGAUUUUUUCCUCGAGCAA [C5G A23U G78U]
CUCUGGGUAGCCAAGUUGGUUUAGGGCGCAAGACUUUAAUUUAUCACUACGAAAUCUUGAGAUCGGGCGUUCGACUCGCCCCCGGGAGAUUUUUUCCUCGAGCAA [C5G A24G]
CUCUGGGUAGCCAAGUUGGUUUAGCGCGCAAGACUUUAAUUUAUCACUACGAAAUCUUGAGAUCGGGCGUUCGACUCGCCACCGGGAGAUUUUUUCCUCGAGCAA [C5G A24G G25C C81A]
CUCUGGGUAGCCAAGUUGGUUUAGGACGCAAGACUUUAAUUUAUCACUACGAAAUCUUGAGAGCGGACGUUCGACUCGCCCCCGGGAGAUUUUUUCCUCGAGCAA [C5G A24G G26A U63G G67A]
CUCUGGGUAGCCAAGUUGGUUUAAGGCGCCAGACUUUAAUUUAUCACUACGAAAUCUUGAGAUCGGGCGUUCGACUCGCCCCCGGGAGAUUUUUUCCUCGAGCAA [C5G A30C]
CUCUGGGUAGCCAAGUUGGUUUAAGGCGCGAGACGUUAAUUUAUCACUACGAAAUCUUGAGACCGGGCGUUCGACUCGCCCCAGGGAGAUUUUUUCCUCGAGCAA [C5G A30G U35G U63C C83A]
CUCUGGGUAGCCAAGUUGGUUUAAGGCGCACGACUUUAAUUUAUCACUACGAAAUCUUGAGAUCGGGCGUUCGACUCGCCCCCGGGAGAUUUUUUCCUCGAGCAA [C5G A31C]
CUCUGGGUAGCCAAGUUGGUUUAAGGCGCAAGCCUUUAAUUUAUCACUACGAAAUCUUGAGAUCGGGCGUUCGACUGGCCCCCGGGGGAUUUUUUCCUCGAGCAA [C5G A33C C77G A87G]
CUCUGGGUAGCCAAGUUGGUUUAAGGCGCAAGGCUUUAAUUUAUCACUACGAAAUCUUGAGAUCACGCGUUCGACUCGCCCCCGGGAGAUUUUUUCCUCGAGCAA [C5G A33G G65A G66C]
CUCUGGGUAGCCAAGUUGGUUUAAGGCGCAAGUCUUUAAUUUAUCACUACGAAAUCUUGAGAUCGGGCGUUCGACUCGCCCCCGGGAGAUUUUUUCCUCGAGCAA [C5G A33U]
CUCUGGGUAGCCAAGUUGGUUUAAGGCGCAAGACUUUAAUUUAUCACUACGAAUUCUUGAGAGCGGGCGUUGGACUCGCCCCCGGGUGAUUUUUUCCUCGAGCAA [C5G A54U U63G C72G A87U]
CUCUGGGUAGCCAAGUUGGUUUAAGGCGCAAGACUUUAAUUUAUCACUACGAAAUCUUGCGAUCGGGCGUUCGACUCGCCCCCGGGCGAUUUUUUCCUCGAGCAA [C5G A60C A87C]
CUCUGGGUAGCCAAGUUGGUUUAAGGCGCAAGACUUUAAUUUAUCACUACGAAAUCUUGAGUUCGGGCGUUCGACUCGCCCCCGGGAGAUUUUUUCCUCGAGCAA [C5G A62U]
CUCUGGGUAGCCAAGUUGGUUUAAGGCGCAAGACUUUAAUUUAUCACUACGAAAUCUUGAGUUCGGGCGUUCGACUCGCCCUCGGGAGAUUUUUUCCUCGAGCAA [C5G A62U C82U]
CUCUGGGUAGCCAAGUUGGUUUAAGGCGCAAGACUUUAAUUUAUCACUACGAAAUCUUGAGAUCGGGCGUUCGACUCGCCCCCGGGAGUUUUUUUCCUCGAGCAA [C5G A89U]
CUCUGGGUAGACAAUUUGGUUUAAGGCGCAAGACUUUAAUUUAUCACUACGAAAUCUUGAGAUCGGGCGUUCGACUCGCCCCCGGGCGAUUUUUUCCUCGAGCAA [C5G C11A G15U A87C]
CUCUGGGUAGACAAGUUGGUUUAAGGCUCAAGACUUUAAUUUAUCACUACGAAAUCUUGAGAUCGGGCGUUCGACUCGCCCCCGGGAGAUUUUUUCCUCGAGCAA [C5G C11A G28U]
CUCUGGGUAGGCAAGUUGGUUUAAGGCGCAAGACUUUAAUUUAUCACUACGAAAUCUUGACAUCGGCCGUUCGACUCCCCCCCGGGAGAUUUUUUCCUCGAGCAA [C5G C11G G61C G67C G78C]
CUCUGGGUAGUCAAGUUGGUUUAAGGAGCAUGACUUUAAUUUAUCACUACGAAAUCUUGAGAUCGGGCGUUCGACUCGCCCCCGGUAGAUUUUUUCCUCGAGCAA [C5G C11U C27A A31U G86U]
CUCUGGGUAGCAAAGUUGGUUUAAGGCGCAAGACUUUAAUUUAUCACUACGAAAUCUUUAGAUCGGGCGUUCGACUCGCCCCCGGGAGAUUUUUUCCUCGAGCAA [C5G C12A G59U]
CUCUGGGUAGCGAAGUUGGUUUAAGGCGGAAGACUUUAAUUUAUCACUACGAAAUCUUGAGACCGGGCGUUCGACUCGCCCCCGGGAGAUUUUUUCCUCGAGCAA [C5G C12G C29G U63C]
CUCUGGGUAGCGAAGCUGGUUUAAGGCGCAAAACUUUAAUUUAUCACUACGAAAUCUUGAGAUCGGGCGUUCGACUCGCCCCCGGGAGAUUUUUUCCUCGAGCAA [C5G C12G U16C G32A]
CUCUGGGUAGCGAAGUUGGUUUAAGGCGCAAGACUUUAAUUUAUCACUACGAAAGUUUGAGAUCGGGCGUUCGACUGGCCCCCUGGAGAUUUUUUCCUCGAGCAA [C5G C12G U55G C56U C77G G84U]
CUCUGGGUAGCCAAGUUGGUUUAAGGUGCAGGACGUUAAUUUAUCACUACGAAAUCUUGAGAUCGGGGGUUCGACUCGCCCCCGGGAGAUUUUUUCCUCGAGCAA [C5G C27U A31G U35G C68G]
CUCUGGGUAGCCAAGUUGGUUUAAGGCGAUAGACUUUAAUUUAUCACUACGAAAUCUUGAGAUCGGGCUGUCGACUCGCCCCCGGGAGAUUUUUUCCUCGAGCAA [C5G C29A A30U G69U U70G]
CUCUGGGUAGCCAAGUUGGUUUAAGGCGAAAGACUUUAAUUUAUCACUACGAAAUCUUGAGAUCAGGCGUAAGACUCGCCCCCGGGAGAUUUUUUCCUCGAGCAA [C5G C29A G65A U71A C72A]
CUCUGGGUAGCCAAGUUGGUUUAAGGCGAAAGACUUUAAUUUAUCACUACGAAAUCUUGAGAUCAGGCGUAAGACUCGCCCCCGGUAGAUUUUUUCCUCGAGCAA [C5G C29A G65A U71A C72A G86U]
CUCUGGGUAGCCAAGUUGGUUUAAGGCGGAAGACUUUAAUUUAUCACUACGAAAUCUUGAGAUCGGGCGUUCGACUCGCCCCCGGGAGAUUUUUUCCUCGAGCAA [C5G C29G]
CUCUGGGUAGCCAAGUUGGUUUAAGGCGCAAGACUUUAAUUUAUCACUACGAAAUAUUGAAAUCGGGUGUUCGACUCGCCCCCGGGAGAUUUUUUCCUCGAGCAA [C5G C56A G61A C68U]
CUCUGGGUAGCCAAGUUGGUUUAAGGCGCAAGACUUUAAUUUAUCACUACGAAAUAUUGAUAUCGGGCGUUCGACUCGCCCCCGGGAAAUUUUUUCCUCGAGCAA [C5G C56A G61U G88A]
CUCUGGGUAGCCAAGUUGGUUUAAGGCGCAAGACUUUAAUUUAUCACUACGAAAUGUCGAGAUCGGGCGUUCGACUCGACCCCGGGAGAUUUUUUCCUCGAGCAA [C5G C56G U58C C79A]
CUCUGGGUAGCCAAGUUGGUUUAAGGCGCAAGACUUUAAUUUAUCACUACGAAAUCUUGAGAUUGGGCGUCCGACUCGCCCCCGGGAGAUUUUUUCCUCGAGCAA [C5G C64U U71C]
CUCUGGGUAGCCAAGUUGGUUUAAGGCGCAAGACUUUAAUUUAUCACUACGAAAUCUUGAGAUCGGGGGUUCGACUCGCCCCCGGGAGAUUUUUUCCUCGAGCAA [C5G C68G]
CUCUGGGUAGCCAAGUUGGUUUAAGGCGCAAGACUUUAAUUUAUCACUACGAAAUCUUGAGAUCGGGCGUUGGACUCGCCCCCGCGAGGUUUUUUCCUCGAGCAA [C5G C72G G85C A89G]
CUCUGGGUAGCCAAGUUGGUUUAAGGCGCAAGACUUUAAUUUAUCACUACGAAAUCUUGAGAUCGGGCGUUCGAUUCGCCCCCGGGAGAUUUUUUCCUCGAGCAA [C5G C75U]
CUCUGGGUAGCCAAGUUGGUUUAAGGCGCAAGACUUUAAUUUAUCACUACGAAAUCUUGAGAUCGGGCGUUCGACUCGCCCCAGGGAGAUUUUUUCCUCGAGCAA [C5G C83A]
CUCUGAGUAGCCAAGUUGGUUUAAGGCGCAAGUCGUUAAUUUAUCACUACGAAAUCUUGAGAUCGGGCGCUCGACUCGCCCCCGGGAGAUUUUUUCCUCGAGCAA [C5G G6A A33U U35G U70C]
CUCUGCGUCGCCAAGUUGGUUUAAGGCGCAAGACUUUAAUUUAUCACUACGAAAUCUUGAGAUCGGGCGUUCGACUCGCCCCCGGGAGCUUUUUUCCUCGAGCAA [C5G G6C A9C A89C]
CUCUGCGUAGCCAAGUUGGUUUAAGGCGCAAGACUUUAAUUUAUCACUACGAAAUCUUGAGAUCGGGCGCUCGACUCGCCCCCGGGAGAUUUUUUCCUCGAGCAA [C5G G6C U70C]
CUCUGUGUAGCCAAGUUGGUUUAAGGCGCAAGACUUUAAUUUAUCACUACGAAAUCUUGAGAUCGGGCGUUCGACUCGCCCCCGGGAGAUUUUUUCCUCGAGCAA [C5G G6U]
CUCUGGAUAGCCAAGUGGGUUUAAGGCGCAAGACUUUAAUUUAUCACUACGAAAUCUUGAGAUCGGGCGUUGGACUCGCCCCCGGGAGAUUUUUUCCUCGAGCAA [C5G G7A U17G C72G]
CUCUGGUUAGGCAAGUUGGUUUAAGGCGCAAGACUUUAAUUUAUCACUACGAAAUCUUGAGAUCGGGCGUUCGACUCGCCCCCGGGAGAUUUUUUCCUCGAGCAA [C5G G7U C11G]
CUCUGGGUACCCAAGUUGGUUUAAGGCGCAAGACUUUAAUUUAUCACUACGAAAUCCUGAGAUCGGGCGUUCGACUCGCCCCCGGGAGAUUUUUUCCUCGAGCAA [C5G G10C U57C]
CUCUGGGUACCCAAGUUGGUUUAAGGCGCAAGACUUUAAUUUAUCACUACGAAAUCGUGAGAUCGGGAGUUCGACUCGCCCCCGGGAGAUUUUUUCCUCGAGCAA [C5G G10C U57G C68A]
CUCUGGGUAGCCAAAUUGGUUUAAGGCGCAAGACUUUAAUUUAUCACUACGAAGUCUUGAGAUCGGGCGUUCGACUCGCCCUCGGGAGAUUUUUUCCUCGAGCAA [C5G G15A A54G C82U]
CUCUGGGUAGCCAAUUUGGUUUAAGGCGCCAGACUUUAAUUUAUCACUACGAAAUCUUGAGAUCGGGCGUUCGACUCGCCCCCGGGAGAUUUUUUCCUCGAGCAA [C5G G15U A30C]
